Substitutions are numbered along the chain they refer to; changes in the protein carry UniProt numbers. The list shows a part of the results.
T1: RBFOX1 RRM (Homo sapiens, UniProt Q9NWB1 109-208)
T1 sequence: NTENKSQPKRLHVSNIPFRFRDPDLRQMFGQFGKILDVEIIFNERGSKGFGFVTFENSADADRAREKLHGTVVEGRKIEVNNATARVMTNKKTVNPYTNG

B1: AUAGCAC (DNA:RNA)
RNA: GGGAGACCGGAAUUCAGAUUGUCCAUAGCACUUAAAUCCCGUCGUAGCCACCA
DNA 1: CAATCTGAATTCCGGTCTCCC
DNA 2: TGGTGGCTACGACGGGATT
B2: GCGACAC (DNA:RNA)
RNA: B1 RNA with A25G, U26C, A27G, G28A
DNA 1: CAATCTGAATTCCGGTCTCCC
DNA 2: TGGTGGCTACGACGGGATT
B3: GUCGAUG (DNA:RNA)
RNA: B1 RNA with A25G, A27C, C29A, A30U, C31G
DNA 1: CAATCTGAATTCCGGTCTCCC
DNA 2: TGGTGGCTACGACGGGATT
B4: CUUGCCC (DNA:RNA)
RNA: B1 RNA with A25C, A27U, A30C
DNA 1: CAATCTGAATTCCGGTCTCCC
DNA 2: TGGTGGCTACGACGGGATT
B5: CAGUAAC (DNA:RNA)
RNA: B1 RNA with A25C, U26A, A27G, G28U, C29A
DNA 1: CAATCTGAATTCCGGTCTCCC
DNA 2: TGGTGGCTACGACGGGATT
B6: AGGCAUA (DNA:RNA)
RNA: B1 RNA with U26G, A27G, G28C, C29A, A30U, C31A
DNA 1: CAATCTGAATTCCGGTCTCCC
DNA 2: TGGTGGCTACGACGGGATT
B7: UCGGUCA (DNA:RNA)
RNA: B1 RNA with A25U, U26C, A27G, C29U, A30C, C31A
DNA 1: CAATCTGAATTCCGGTCTCCC
DNA 2: TGGTGGCTACGACGGGATT
B8: CAUUAGA (DNA:RNA)
RNA: GGGAGACCGGAAUUCAGAUUGUCCCAUUAGAUUAAAUCCCGUCGUAGCCACCA
DNA 1: CAATCTGAATTCCGGTCTCCC
DNA 2: TGGTGGCTACGACGGGATT
B9: UUGGAAC (DNA:RNA)
RNA: B1 RNA with A25U, A27G, C29A
DNA 1: CAATCTGAATTCCGGTCTCCC
DNA 2: TGGTGGCTACGACGGGATT
B10: GGAGGAU (DNA:RNA)
RNA: B1 RNA with A25G, U26G, C29G, C31U
DNA 1: CAATCTGAATTCCGGTCTCCC
DNA 2: TGGTGGCTACGACGGGATT
B11: UAACGGU (DNA:RNA)
RNA: B8 RNA with C25U, U27A, U28C, A29G, A31U
DNA 1: CAATCTGAATTCCGGTCTCCC
DNA 2: TGGTGGCTACGACGGGATT
B12: CAAUUGA (DNA:RNA)
RNA: B8 RNA with U27A, A29U
DNA 1: CAATCTGAATTCCGGTCTCCC
DNA 2: TGGTGGCTACGACGGGATT
B13: ACUGAAU (DNA:RNA)
RNA: B1 RNA with U26C, A27U, C29A, C31U
DNA 1: CAATCTGAATTCCGGTCTCCC
DNA 2: TGGTGGCTACGACGGGATT
B14: GUGCCCG (DNA:RNA)
RNA: B1 RNA with A25G, A27G, G28C, A30C, C31G
DNA 1: CAATCTGAATTCCGGTCTCCC
DNA 2: TGGTGGCTACGACGGGATT
B15: CCUAUAG (DNA:RNA)
RNA: B8 RNA with A26C, U28A, A29U, G30A, A31G
DNA 1: CAATCTGAATTCCGGTCTCCC
DNA 2: TGGTGGCTACGACGGGATT
B16: UAGAAUG (DNA:RNA)
RNA: B8 RNA with C25U, U27G, U28A, G30U, A31G
DNA 1: CAATCTGAATTCCGGTCTCCC
DNA 2: TGGTGGCTACGACGGGATT
B17: GUCCACG (DNA:RNA)
RNA: B1 RNA with A25G, A27C, G28C, C29A, A30C, C31G
DNA 1: CAATCTGAATTCCGGTCTCCC
DNA 2: TGGTGGCTACGACGGGATT
B18: AGACAGG (DNA:RNA)
RNA: B1 RNA with U26G, G28C, C29A, A30G, C31G
DNA 1: CAATCTGAATTCCGGTCTCCC
DNA 2: TGGTGGCTACGACGGGATT
B19: CUCUUCC (DNA:RNA)
RNA: B1 RNA with A25C, A27C, G28U, C29U, A30C
DNA 1: CAATCTGAATTCCGGTCTCCC
DNA 2: TGGTGGCTACGACGGGATT
B20: CUUAAGU (DNA:RNA)
RNA: B8 RNA with A26U, U28A, A31U
DNA 1: CAATCTGAATTCCGGTCTCCC
DNA 2: TGGTGGCTACGACGGGATT

Each binder was assayed against T1, RBFOX1 RRM (assay: EMSA; HiTS-Eq, 1 nM pool, 10 min; buffer printed only for the single-RNA assays: 10 mM Tris pH 7.5, 150 mM NaCl, 3.4 mM EDTA, 0.001% NP-40, 30 C). Conditions: tags: His6 N-terminal (pET28a); label: 5' 32P.
In short: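 Relative association constants, normalised to the cognate motif, were derived by comparing read counts of each RNA species with those of the control reaction. The RNA sequenced was the free fraction, separated by 8% native PAGE after a 10 min equilibration in 50 µL of 1 nM 5′-radiolabelled RNA (7 randomized nucleotides) with increasing concentrations of purified wild-type or mutant RbFox RRM.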

Binder | binding signal
B1 | 0.00575 KA relative to UGCAUGU
B2 | 0.00893 KA relative to UGCAUGU
B3 | 0.0207 KA relative to UGCAUGU
B4 | 0.00752 KA relative to UGCAUGU
B5 | 0.00435 KA relative to UGCAUGU
B6 | 0.00927 KA relative to UGCAUGU
B7 | 0.0103 KA relative to UGCAUGU
B8 | 0.00546 KA relative to UGCAUGU
B9 | 0.0142 KA relative to UGCAUGU
B10 | 0.0117 KA relative to UGCAUGU
B11 | 0.00643 KA relative to UGCAUGU
B12 | 0.00562 KA relative to UGCAUGU
B13 | 0.00885 KA relative to UGCAUGU
B14 | 0.0203 KA relative to UGCAUGU
B15 | 0.00298 KA relative to UGCAUGU
B16 | 0.0313 KA relative to UGCAUGU
B17 | 0.00706 KA relative to UGCAUGU
B18 | 0.0143 KA relative to UGCAUGU
B19 | 0.00695 KA relative to UGCAUGU
B20 | 0.0108 KA relative to UGCAUGU

Source: article PMC9911399, “Two distinct binding modes provide the RNA-binding protein RbFox with extraordinary sequence specificity”
